Measured values as given in PubChem BioAssay AID1159614 (National Center for Advancing Translational Sciences (NCATS), 2016).
Hit rate of the full screen: of about 45,000 compounds, about 65 (0.1%) were called active. Calls follow the shape of the dose curve; as a rule, active = well fitted activation curve with a large enough effect; inconclusive = small, poorly fitted or top-dose-only effect; inactive = no such curve, though single readings can be large or run the other way. Some of the results follow.

target: Galactocerebrosidase (Homo sapiens) (UniProt P54803); assay: A Novel Cell-Based Assay to Identify Small Molecules for B -Galactocerebrosidase; details: 145M-Twi-hGALC-G270D cells, HMU-beta-Gal fluorescence, 48 h; series mostly up to 57.5 µM; activation: at the top concentration; also: 0% is about no effect; nearly all actives have a fitted effect of over 65% in size
Chain of UniProt P54803 (P54803 whole entry, looked up): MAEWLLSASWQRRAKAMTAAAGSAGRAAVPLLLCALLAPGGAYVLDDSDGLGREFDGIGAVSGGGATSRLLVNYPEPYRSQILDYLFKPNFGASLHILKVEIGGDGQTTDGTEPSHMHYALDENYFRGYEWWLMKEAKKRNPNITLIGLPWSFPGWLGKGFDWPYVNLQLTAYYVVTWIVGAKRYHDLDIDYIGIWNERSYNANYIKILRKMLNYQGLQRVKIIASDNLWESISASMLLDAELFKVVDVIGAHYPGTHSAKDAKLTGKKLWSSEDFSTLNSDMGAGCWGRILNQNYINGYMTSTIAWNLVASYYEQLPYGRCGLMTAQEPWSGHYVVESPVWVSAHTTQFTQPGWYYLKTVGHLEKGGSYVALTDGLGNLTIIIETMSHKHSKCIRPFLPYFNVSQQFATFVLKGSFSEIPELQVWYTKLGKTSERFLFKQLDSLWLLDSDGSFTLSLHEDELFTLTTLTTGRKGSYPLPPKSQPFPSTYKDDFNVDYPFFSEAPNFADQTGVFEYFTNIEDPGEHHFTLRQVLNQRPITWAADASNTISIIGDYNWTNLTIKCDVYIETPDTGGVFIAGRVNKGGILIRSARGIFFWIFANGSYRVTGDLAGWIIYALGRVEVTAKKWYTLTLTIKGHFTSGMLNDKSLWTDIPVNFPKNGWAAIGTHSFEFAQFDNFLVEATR
Outline: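 qHTS, 1536-well; 145M-Twi-hGALC-G270D cells (WT line also made) in DMEM/F12 + 10% FBS; compound incubation on live cells; HMU-β-gal 0.1 mM final, pH 5.2, NaTC; carbonate stop; fluorescence increase = enhanced residual activity.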

Structure (SMILES)	activation
O=C(CSc1nc2c([nH]c3ccccc32)c(=O)n1-c1ccccc1)N1CCCc2ccccc21	inactive: -7.98%
Cc1ccccc1C(=O)Nc1sc2c(c1C(=O)O)CCC(C(C)(C)C)C2 (stereo unspecified)	inactive: -20.7%
O=C(CSc1nc2c([nH]c3ccccc32)c(=O)n1-c1ccc(F)cc1)NCC1CCCO1 (stereo unspecified)	inactive: -14.3%
CC1=C(c2ccc(F)cc2)S(=O)(=O)N=C1N1CCC(C(=O)NCCc2ccccc2)CC1	inactive: -10.5%
Cc1nc(N2CCCC2)ncc1C(=O)NCc1ccc(Cl)cc1	inactive: -9.13%
CC(C)c1ccc(Cc2cn3cc(-c4cc5ccccc5oc4=O)nc3s2)cc1	inactive: -11.8%
COc1cccc(-n2c(SCC(=O)Nc3cccc(C)c3)nc3c([nH]c4ccccc43)c2=O)c1	inactive: -29.2%
Cc1ccc(NC(=O)NCCOCCn2c(=O)oc3ccccc32)c(C)c1	inactive: -10.9%
COc1ccccc1N1CCN(S(=O)(=O)c2ccc(-c3ccno3)cc2OC)CC1	inactive: 0.202%
O=C(NCc1ccc(Cl)cc1)c1cc2ccc3cccnc3c2[nH]1	inactive: -12.3%
Cc1cccc(NC(=O)c2cc(CN3CCOCC3)on2)c1C	inactive: -5.5%
Cc1cccc(S(=O)(=O)c2cn(C)c3cc(N4CCCCCC4)c(F)cc3c2=O)c1	inactive: -15.5%
O=C(CSc1ccccc1)N1CCc2c([nH]c3ccccc23)C1c1ccc(Cl)cc1 (stereo unspecified)	inactive: -41.3%
COc1cccc(C(=O)c2cn(CC(=O)Nc3cc(Cl)c(OC)cc3OC)c3nc(C)ccc3c2=O)c1	inactive: 3.86%
COc1ccc(NC(=O)Cn2nc3c(cc2=O)CCCC3)cc1Cl	inactive: 9.2%
CCCCc1nn2c(=O)cc(CN(CC)c3ccccc3)nc2s1	inactive: 3.43%
CC(C)(C)c1ccc(C(=O)NNc2ncnc3c2cnn3-c2ccc(Cl)cc2)cc1	inactive: -18.6%
Cc1cccc(C)c1NC(=O)NCCCN1CCN(c2ccccc2)CC1	inactive: -9%
COc1cc(CN(C(=O)COc2ccc(Cl)cc2)c2ccccn2)cc(OC)c1OC	inactive: -33.8%
Cc1ccc(C)c(NC(=O)C2CCN(c3ncnc4c3nc3n4CCCCC3)CC2)c1	inactive: -6.89%
COc1ccc(OC)c(C2=NS(=O)(=O)N(C)C(C(=O)Nc3ccc(C(C)=O)cc3)=C2)c1	inactive: -4.12%
O=C(CN1C(=O)C2(SCC(=O)N2c2ccccc2)c2ccccc21)Nc1ccccc1C(F)(F)F (stereo unspecified)	inactive: -25%
CCOc1ccc(NC(=O)Cn2cc(S(=O)(=O)c3ccc(C)cc3)c(=O)c3cc(F)ccc32)cc1	inactive: -3.47%
CC(=O)c1nn(-c2ccc(OC(F)(F)F)cc2)nc1Nc1ccc(Cl)cc1	inactive: -8.36%

Structure (SMILES)	activation
CCc1ccccc1NC(=O)CC(C)S(=O)(=O)c1ccc2c(c1)NC(=O)CO2 (stereo unspecified)	inactive: -8.46%
O=C(CSc1nc2c([nH]c3ccccc32)c(=O)n1-c1ccccc1)NCc1ccc(F)cc1	inactive: -10%
CCNC(=O)C1CCN(c2nc3ccccc3nc2C(F)(F)F)CC1	inactive: -12.9%
CCc1ccc2occ(CC(=O)Nc3nnc(C)s3)c2c1	inactive: -26.1%
Cc1ccc(CN2C(=O)C(O)(CC(=O)c3ccc(C)cc3)c3ccccc32)cc1 (stereo unspecified)	inactive: -20.9%
CCOC(=O)C1CCCN(C(=O)Cn2c(=O)cc(C)c3c(C)nn(C)c32)C1 (stereo unspecified)	inactive: -3.9%
COc1ccc(S(=O)(=O)N2CCC(C(=O)NC(C)c3ccccc3)CC2)cc1 (stereo unspecified)	inactive: 8.11%
COc1ccc(C(=O)c2cnc3ccc(C)cc3c2S(=O)(=O)c2ccccc2)cc1	inactive: -21.6%
O=C(Nc1ccc(Br)cc1)c1cc2nc(-c3ccccc3)cc(-c3ccccc3)n2n1	inactive: -3.87%
COc1ccc2[nH]cc(CCN=C(NC(=O)c3cccc(Cl)c3)Nc3nc(C)cc(C)n3)c2c1	inactive: -0.524%
Cc1ccc(NC(=O)c2cc(S(=O)(=O)NC3CCCCCC3)ccc2F)cc1F	inactive: -14.2%
CCOc1ccc(-c2nnc(SCC(=O)NCc3ccc(Cl)cc3)o2)cc1	inactive: 3.43%
Cc1ccc(N2CC(NC(=O)c3ccco3)CC2=O)cc1 (stereo unspecified)	inactive: -1.8%
CCOc1ccc(NC(=O)CSC2=Nc3ccccc3C3=NC(CC(=O)NCc4ccccc4OC)C(=O)N23)cc1 (stereo unspecified)	inactive: -7.21%
O=C(c1ccc2c(c1)N(Cc1ccc(F)cc1)C(=O)c1ccccc1S2(=O)=O)N1CCCCCC1	inactive: 8.28%
COc1cccc(-n2c(=O)c3cc(OC)c(OC)cc3n(CC(=O)Nc3ccccc3)c2=O)c1	inactive: -8.76%
O=C(Nc1cc2c(cc1C(=O)c1ccc(Br)cc1)OCCO2)c1ccc(Cl)cc1	inactive: 2.71%
Cc1ccc(S(=O)(=O)Nc2ccc3[nH]c(=O)sc3c2)cc1C	inactive: -7.12%
O=C(c1ccc2c(c1)N(Cc1ccc(Cl)cc1)C(=O)c1ccccc1S2(=O)=O)N1CCC(Cc2ccccc2)CC1	inactive: -9.22%
Cc1ccc(S(=O)Cc2ccc(C(=O)NC3CCCCCC3)o2)cc1 (stereo unspecified)	inactive: -15.6%
CNC(=O)CN(CCN(CCN(CC(=O)[O-])CC(=O)NC)CC(=O)[O-])CC(=O)[O-].O.[Gd+3]	inactive: -14%
Cc1oc(-c2ccccc2F)nc1CS(=O)(=O)CC(=O)N1CCN(c2ccc(Cl)cc2)CC1	inactive: -7.48%
COc1ccc(CCn2c(=O)c3ccccc3n(CC(=O)Nc3cccc(C)c3)c2=O)cc1OC	inactive: -3.48%
CC(=O)Nc1ccccc1-c1nc2ccccc2n(CC(=O)Nc2ccc(C)c(Cl)c2)c1=O	inactive: -7.95%

Structure (SMILES)	activation
Cc1ccc(C)c(S(=O)(=O)c2cn(C)c3cc(F)c(F)cc3c2=O)c1	inactive: -8.53%
CCc1cccc(NC(=O)c2c(N3CCCC3=O)c3cc(C)ccc3n2C)c1	inactive: -1.41%
CCn1c(COc2cccc(C)c2)nc2ccccc21	inactive: -14.9%
O=S(=O)(c1ccc(Br)cc1)c1nc(-c2cccs2)oc1SCc1ccc(F)cc1	inactive: -10.8%
CCS(=O)(=O)N1CCC2(CC1)OC(=O)C(C)=C2C(=O)NCc1cccc(Cl)c1	inactive: -13.1%
CCN(C(=O)CCS(=O)(=O)c1ccc2c(c1)oc(=O)n2C)c1ccc(OC)cc1	inactive: -17.1%
Cc1[nH]c2ccc(C(=O)Nc3ccc(F)cc3)cc2c1C	inactive: -5.47%
Cc1ccccc1CN1C(=O)c2ccccc2S(=O)c2ccc(C(=O)NCc3ccco3)cc21 (stereo unspecified)	inactive: -12.1%
Cc1ccc(NC(=O)CSc2nc3c(c(=O)[nH]2)CCC3)cc1Cl	inactive: -0.408%
CC(C)CCNC(=O)CCC(=O)N1Cc2ccccc2Oc2ncccc21	inactive: -14.9%
CCn1c(SCC(=O)Nc2ccccc2)nc2c([nH]c3ccccc32)c1=O	inactive: -21.4%
COc1cc2c(cc1NC(=O)COc1ccc(Br)cc1C)oc1ccccc12	inactive: -9.17%
Cc1ccc(C)c(N2CCN(C(=O)C3CCN(C(=O)c4cc5sccc5n4C)CC3)CC2)c1	inactive: -3.23%
Cc1ccccc1NS(=O)(=O)c1ccc2c(c1)NC(=O)CCS2	inactive: -17.6%
O=C(c1ccccc1)c1ccc2nc(N3CCN(c4ccccc4)CC3)c3nncn3c2c1	inactive: -9.31%
CN(C)c1cccc(C(=O)Nc2nc3ccc(S(=O)(=O)NC(C)(C)C)cc3s2)c1	inactive: -7.2%
Cc1ccc(CNC(=O)c2ccc3c(c2)NC(=O)C(CS(=O)(=O)Cc2ccc(F)cc2)N3)cc1 (stereo unspecified)	inactive: -9.1%
COc1ccccc1C(=O)Nc1c(C(=O)N2CCN(c3ccccc3F)CC2)oc2ccccc12	inactive: -15.2%
Cc1ccc(NC(=O)c2ccc(COc3ccccc3Cl)o2)cc1	inactive: -11.8%
Cc1cc2c(cc1S(=O)(=O)NCc1ccccc1)OCC(=O)N2	inactive: -16.7%
COc1ccc(NC(=O)CCCSc2nc(-c3ccco3)cc(C(F)(F)F)n2)cc1	inactive: -13.7%
CC1=C(/C=C/C(C)=C/C=C/C(C)=C/C(=O)O)C(C)(C)CCC1	inactive: -12.3%
CCC1CCCCN1CCCNC(=O)c1cn(CC)c2ccc(S(=O)(=O)N(C)C3CCCCC3)cc2c1=O (stereo unspecified)	inactive: -14%
CC(C)(C)c1ccc(C(=O)Nc2ccc(C(=O)OCc3cc(=O)n4ccsc4n3)cc2)cc1	inactive: 7.83%

Structure (SMILES)	activation
Cc1nc2ccc(S(=O)(=O)CCC(=O)Nc3ccc(C(C)C)cc3)cc2s1	inactive: -15.8%
COc1ccc(-c2cn3c(n2)sc2cc(C(=O)Nc4c(C)cccc4C)ccc23)cc1	inactive: -1.2%
Cc1ccc(CNC(=O)C2(c3cccs3)CCOCC2)cc1	inactive: 3.89%
COC(=O)c1sc(-c2ccccc2)cc1NC(=O)Nc1ccccc1Cl	inactive: -12.1%
O=C(/C=C/c1ccc(O)c(O)c1)O[C@@H]1C[C@@](OC(=O)/C=C/c2ccc(O)c(O)c2)(C(=O)O)C[C@@H](O)[C@@H]1O	inactive: -13.1%
CCOC(=O)N1CCc2c(sc3c2c(=O)n(Cc2ccccc2)c(=O)n3CC(=O)Nc2cccc(C)c2)C1	inactive: -7.76%
Cc1cc(C)cc(Nc2nc3ccccc3nc2-n2nc(C)cc2C)c1	inactive: -6.81%
CN(C)S(=O)(=O)c1ccc(C(=O)Nc2c(C(=O)Nc3ccc(F)cc3)oc3ccccc23)cc1	inactive: -2.15%
COc1ccc(C(=O)n2nc(-c3ccc(Cl)cc3)nc2NCc2ccco2)cc1	inactive: 7.88%
CCOc1ccc(NC(=O)CSc2ncnc3c2sc2ccccc23)cc1	inactive: -7.24%
CCc1ccc(NC(=O)c2cc3c(COC(C)=O)cnc(C)c3oc2=O)cc1	inactive: -8.9%
CCCCC(=O)Nc1cc(-c2nc3cccnc3s2)ccc1C	inactive: -10.1%
COc1ccc(-c2nn(-c3ccc(C)cc3)c3c2cnc2ccc(C)cc23)cc1OC	inactive: -7.29%
Cc1ccc(C)c(-n2nnc(-c3nc(-c4ccccc4C)no3)c2C)c1	inactive: -19.7%
COC(=O)c1cc(NC(=O)c2sc3ccccc3c2Cl)cc(C(=O)OC)c1	inactive: -14%
Cc1cccc(N2CCN(c3ncnc4c3nc3n4CCCCC3)CC2C)c1 (stereo unspecified)	inactive: -21.5%
CCOc1ccc(-c2nc(CSCC(=O)NCc3ccc(C)cc3)c(C)o2)cc1	inactive: -15.2%
COc1ccc(CCNc2nc3cc(OC)c(OC)cc3c3nc(-c4ccccc4)nn23)cc1OC	inactive: 9.56%
COC(=O)c1cc2occc2n1CC(=O)Nc1ccc(C)cc1Cl	inactive: -10.4%
O=C(NCC(c1cccnc1)N1CCN(Cc2ccccc2)CC1)C(=O)Nc1cccc(Cl)c1 (stereo unspecified)	inactive: -13.6%
O=C(O)c1cccc(-n2cnc3cccnc32)c1	inactive: -2.76%
CCCN1CCN(CCCNC(=O)C(CC)n2nc(C)n3c(cc4occc43)c2=O)CC1 (stereo unspecified)	inactive: -11.7%
COc1cccc(NC(=O)c2cc3c(-c4ccc(Cl)cc4)nn(C)c3s2)c1	inactive: -12.5%
CC1=C(C(=O)O)N2C(=O)[C@@H](NC(=O)[C@H](N)C3=CCC=CC3)[C@H]2SC1	inactive: 10%
